Test results: PubChem BioAssay AID1468 (National Center for Advancing Translational Sciences (NCATS), 2008)
In all, about 280,000 compounds went through this assay and about 1,100 (0.39%) were called active. This list was built around the results that the source calls inconclusive (neither active nor inactive); the mix of calls is not that of the screen. Calls follow the shape of the dose curve; as a rule, active = well fitted inhibition curve with a large enough effect; inconclusive = small, poorly fitted or top-dose-only effect, or effect the other way; inactive = flat fitted curve, though single readings scatter. A potency beside an inconclusive call is a rough fit, not a confirmed value.

Target: Microtubule-associated protein tau (Homo sapiens) (UniProt P10636)
Sequence of UniProt P10636 (P10636 whole entry, looked up): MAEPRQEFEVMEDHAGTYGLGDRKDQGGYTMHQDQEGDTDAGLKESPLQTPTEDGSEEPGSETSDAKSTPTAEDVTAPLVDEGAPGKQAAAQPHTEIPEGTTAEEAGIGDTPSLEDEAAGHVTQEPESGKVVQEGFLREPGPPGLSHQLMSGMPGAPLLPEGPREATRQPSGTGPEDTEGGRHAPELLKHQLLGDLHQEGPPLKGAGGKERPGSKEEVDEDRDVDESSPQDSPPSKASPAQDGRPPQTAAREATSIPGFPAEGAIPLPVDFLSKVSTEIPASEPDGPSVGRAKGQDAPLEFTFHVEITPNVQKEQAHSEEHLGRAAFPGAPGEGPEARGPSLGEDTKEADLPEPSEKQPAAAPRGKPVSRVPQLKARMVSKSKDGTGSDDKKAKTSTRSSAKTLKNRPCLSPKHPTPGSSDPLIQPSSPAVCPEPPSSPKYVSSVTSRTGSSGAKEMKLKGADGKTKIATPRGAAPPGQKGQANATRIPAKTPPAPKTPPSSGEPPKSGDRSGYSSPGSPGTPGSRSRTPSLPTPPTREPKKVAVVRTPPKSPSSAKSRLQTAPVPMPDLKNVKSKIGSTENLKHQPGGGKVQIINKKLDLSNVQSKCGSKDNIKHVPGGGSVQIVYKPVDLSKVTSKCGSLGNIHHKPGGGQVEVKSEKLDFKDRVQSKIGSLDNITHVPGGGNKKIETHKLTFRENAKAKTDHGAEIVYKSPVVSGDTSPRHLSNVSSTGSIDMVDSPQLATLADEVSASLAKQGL
Test: qHTS for Inhibitors of Tau Fibril Formation, Fluorescence Polarization; also: nearly all actives have a fitted effect of over 55% in size
Settings: K18 P301L tau heparin fibrillization, Alexa594 FP, 6 h; series mostly up to 57.7 µM; activity, negative = inhibition: at the top concentration
Summary of the method: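 Recombinant K18 P301L […], labeled with Alexa 594 at 0.24 uM over 15 uM unlabeled; heparin inducer 20 uM final; 37 C, 6 hr; FP endpoint.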
% is scaled to controls: 0 for no effect and ±100 for the full control effect; potency is read from the fitted curve at half-maximal effect; tags tell the direction and shape of the fitted curve.

Potency, inconclusive:
CCOC(=O)c1cc(-c2ccc(F)cc2)n(CCC(=O)Nc2nc3ccc(OC)cc3s2)c1C 14.1 µM [inhibitor, partial curve, poor fit]
O=C(NCCc1c[nH]c2ccccc12)OCCSS(=O)(=O)O 15.8 µM [inhibitor, partial curve]
COc1ccc2c3c(cccc13)N(C)N=C2C 15.8 µM [inhibitor, partial curve]
COc1ccc(NCc2cc3cc4c(cc3n(CC(=O)Nc3ccc(C)c(C)c3)c2=O)OCO4)cc1 8.91 µM [activator, partial curve]
CCOC(=S)SCc1cn2ccc(C)cc2n1 25.1 µM [inhibitor, single point]
CCCOc1ccc(-c2c(C(=O)N/N=C/c3ccc(C)cc3)nnn2-c2nonc2N)cc1 39.8 µM [inhibitor, partial curve]
CC1(C)C(=O)OC(c2c3ccccc3cc3ccccc23)C(C)(C)C1=O (stereo not drawn) 39.8 µM [inhibitor, single point]
O=C(Cn1c(-c2ccccc2)noc1=O)Nc1ccc(N2CCCCCC2)cc1 12.6 µM [activator, partial curve, poor fit]
Cc1nn(-c2ccccc2)c(C)c1/C=N/NC(=O)c1cc(-c2ccc(Cl)s2)[nH]n1 28.2 µM [inhibitor, partial curve]
Nc1ccc(N2CCCCC2)cc1N1CCCCC1 12.6 µM [inhibitor, partial curve]
Cc1ccccc1C(=O)Nc1ccccc1-c1nnn(CC(=O)Nc2ccc3c(c2)OCCO3)n1 17.8 µM [inhibitor, partial curve]
CC(C)C[C@H](NC(=O)c1nc[nH]c1C(=O)NCC(=O)OC(C)(C)C)C(=O)OC(C)(C)C 39.8 µM [inhibitor, single point]
CCSc1nc2ccccc2n1C(=O)c1ccc(S(=O)(=O)N2CCCCCC2)cc1 35.5 µM [activator, partial curve, poor fit]
CC1=C(C(=O)Nc2ccc(C)cc2C)C(c2ccc(O)cc2)n2nc(SCC(=O)c3ccc(C)cc3)nc2N1 (stereo not drawn) 7.94 µM [inhibitor, partial curve]
COC(=O)c1ccc(NC(=O)Cn2cnc3c(nnn3-c3cccc(OC)c3)c2=O)cc1 35.5 µM [inhibitor, single point]
COc1ccc(C(=O)NNc2ncnc3c2cnn3-c2cccc(Cl)c2)cc1OC 25.1 µM [inhibitor, single point]
O=P(O)(CN1CCCCC1)CN1CCCCC1 1 µM [inhibitor, single point]
CCN(CC)CCCNC(=O)c1nn(C)c2c1CSc1ccccc1-2 39.8 µM [inhibitor, single point]
O=C(CN1C(=O)COc2ccccc21)N(Cc1ccccc1)Cc1ccccn1 2.51 µM [inhibitor, single point]
Cc1ccc(NC(=O)C2CCN(S(=O)(=O)c3c(C)noc3/C=C/c3cccs3)CC2)cc1F 15.8 µM [inhibitor, partial curve]
Cn1c2c(c(=O)n(C)c1=O)C(c1cccc(F)c1)C(C#N)=C(N)O2 (stereo not drawn) 39.8 µM [inhibitor, single point]
Cc1cc(NC(=O)c2ccc3c(c2)OCCO3)cc(-c2nc3ccccc3o2)c1O 39.8 µM [inhibitor, single point]
Cc1ccc(C(=O)COC(=O)c2cccc(NC(=O)c3ccc(Cl)cc3Cl)c2)cc1 11.2 µM [inhibitor, partial curve]
Cc1ccc(C)c(NC(=O)Cn2cc(C(=O)c3cccs3)c3ccccc32)c1 11.2 µM [inhibitor, partial curve]
COc1cc(C(=O)Nc2ccc3c(c2)N(C2CCCC2)C(=O)c2ccccc2S3)cc(OC)c1OC 20 µM [inhibitor, partial curve, poor fit]
CCOC(=O)CC(NS(=O)(=O)c1ccc(OC)c(C)c1)c1cccc([N+](=O)[O-])c1 (stereo not drawn) 28.2 µM [activator, single point]
COc1ccc(N(C(=O)CCl)C(C(=O)NC2CCCCC2)c2cccnc2)cc1 (stereo not drawn) 22.4 µM [activator, single point]
CCc1cccc(NC(=O)Nc2cccs2)c1 4.47 µM [activator, full curve, poor fit]
O=C(Nc1ccc(F)c(Cl)c1)N1CCC2(CC1)Oc1ccccc1C(=O)N2Cc1ccccc1F 39.8 µM [inhibitor, single point]
Nc1nonc1-n1nnc(C(=O)N/N=C/c2ccc(Br)cc2)c1CSC1=NCCS1 17.8 µM [inhibitor, partial curve, poor fit]
COC(=O)c1sc(=S)sc1C(=O)OC 3.98 µM [inhibitor, full curve]
O=C(CCC1=NS(=O)(=O)c2ccccc2N1)NC1CCCCCCC1 22.4 µM [inhibitor, single point]
O=S(=O)(c1ccc(Br)cc1)c1nnn2c1nc(NCc1ccc3c(c1)OCO3)c1sccc12 2.24 µM [inhibitor, full curve, poor fit]
CCCSc1ncc(Cl)c(C(=O)Nc2c(C(=O)Nc3ccc(OC)cc3)oc3ccccc23)n1 20 µM [inhibitor, partial curve]
CCN(CC)CCn1c(=N)n(CCO)c2ccccc21 11.2 µM [inhibitor, partial curve]
O=c1c(C(c2ccccc2)c2c(O)sc3ccccc3c2=O)c(O)sc2ccccc12 20 µM [inhibitor, partial curve]
Cc1ccc(NC(=O)C2CC(=O)N(Cc3ccccc3)C2)cc1S(=O)(=O)N1CCCCCC1 (stereo not drawn) 0.316 µM [inhibitor, full curve]
O=C1NN(c2cccc(Br)c2)C(=O)/C1=C/c1ccc(-c2cc([N+](=O)[O-])ccc2O)o1 5.62 µM [inhibitor, partial curve]
COc1ccc(CS(=O)(=O)/C(Cl)=C(/Cl)C(=O)Nc2ccc(OC)nc2)cc1 3.16 µM [inhibitor, full curve]
CC(=O)OCC1=C(C(=O)O)N2C(=O)C(NC(=O)C(C)Cn3cc(Cl)cn3)C2SC1 (stereo not drawn) 10 µM [inhibitor, partial curve]
CC(=O)Nc1ccc(NC(=O)CSc2nnc3c4ccccc4n(C)c3n2)cc1 39.8 µM [inhibitor, single point]
CC(OC(=O)c1ccc(NS(=O)(=O)c2ccc3[nH]c(=O)[nH]c3c2)cc1)C(=O)Nc1cccc(Cl)c1Cl (stereo not drawn) 31.6 µM [inhibitor, partial curve]

Potency, active:
CC(C)=CCc1c(O)cc2occ(-c3ccc4c(c3)OCO4)c(=O)c2c1O 8.91 µM
O=C(O)c1cccc(NC2=C(Cl)C(=O)c3ccccc3C2=O)c1 25.1 µM

activity, negative = inhibition, inactive:
Nc1nnc(SC2CCCC2)s1 14.4%
COC(=O)C/C=C\[C@H](C)[C@@H](OC)c1ccccc1Br -10.9% [at 11.6 µM]
Cn1c(=O)c2sccc2n2c(CCCC(=O)NC3CCCCC3)nnc12 -1.44%
COc1ccc2[nH]cc(/C=C/C(=O)c3ccccc3)c2c1 11.2%
COc1ccc(-c2nn(-c3ccccc3)cc2C2NC(=O)NC(C)=C2C(=O)OC(C)C)cc1Cl (stereo not drawn) -0.72%
CC(=O)c1ccc(NC(=O)c2nc(-c3ccccc3)n(-c3ccccc3)n2)cc1 2.83%
O=C(CN1CCOCC1)NN1CC(=O)N(c2ccc(Cl)cc2)CC1=O 3.05%
CC1CCN(c2c(NCc3ccc(C(=O)NCc4cccnc4)cc3)c(=O)c2=O)CC1 4.57%
Cc1cc(/C=N\NC(=O)COc2cccc3cccnc23)c(C)n1-c1ccccc1 -10.8%
COc1cc2c3nnc(-c4ccc(F)cc4)c-3cn(Cc3ccccc3)c2cc1OC 10.5%
Cc1ccccc1NC(=O)c1ccc(-c2ccc(Cl)cc2Cl)o1 -4.09%
COc1ccc(-c2nc(Cn3c(SCc4cccc(C(F)(F)F)c4)nc4cccnc43)c(C)o2)cc1OC 8.31%
COc1ccc(C2=NOC(C(=O)NCc3ccco3)C2)cc1 (stereo not drawn) -3.04%
COCCNCCCCOc1ccc(Br)cc1C 1.57%
CC1(C)CNC(=O)c2sc(NC(=O)c3ccccc3Cl)nc2C1 -2.95%
COc1ccc(C2NC(=O)N(C)C3=C2C(=O)N(c2cccc(C(=O)O)c2)C3)cc1 (stereo not drawn) 4.43%
Cc1cccc(N(CC(=O)NCCSCc2cccc(Cl)c2)S(=O)(=O)c2ccccc2)c1C -2.46%
C/C(=N\N1CCN(c2ccccc2)CC1)c1ccco1 -1.24%
CN(C)c1cc(NC(=O)CNC(C)(C)C)c2ccccc2n1 -1.29%
O=C(CSc1cn(CCNC(=O)c2c(F)cccc2F)c2ccccc12)Nc1ccc(F)cc1 -4.6%
Cc1cc(C)c(S(=O)(=O)N2CCC(N3CCN(Cc4ccccc4)C(=O)C3=O)CC2)c(C)c1 -3.44%
O=C(O)c1ccc(CNCc2ccccc2Cl)s1 3.05%
COc1ccc(CNC(=O)Cn2cc3c(n2)CCCCC3)cc1 -5.65%
O=C(CSc1nc2ccccc2c(=O)n1-c1ccccc1)NCc1ccco1 -4.54%
